PMC4336329 (PLoS ONE, 2015)
Hit rate of the full screen: of about 310,000 compounds, about 2,200 (0.71%) showed an effect of 50% or more. The effect is printed as a negative number. The list shows a part of the results.

Target: human ether-à-go-go-related gene (hERG) potassium channel (human, UniProt Q12809)
Experiment: primary screen, population patch clamp on CHO cells stably expressing hERG

Chain of human ether-à-go-go-related gene (hERG) potassium channel (Q12809 whole entry, looked up): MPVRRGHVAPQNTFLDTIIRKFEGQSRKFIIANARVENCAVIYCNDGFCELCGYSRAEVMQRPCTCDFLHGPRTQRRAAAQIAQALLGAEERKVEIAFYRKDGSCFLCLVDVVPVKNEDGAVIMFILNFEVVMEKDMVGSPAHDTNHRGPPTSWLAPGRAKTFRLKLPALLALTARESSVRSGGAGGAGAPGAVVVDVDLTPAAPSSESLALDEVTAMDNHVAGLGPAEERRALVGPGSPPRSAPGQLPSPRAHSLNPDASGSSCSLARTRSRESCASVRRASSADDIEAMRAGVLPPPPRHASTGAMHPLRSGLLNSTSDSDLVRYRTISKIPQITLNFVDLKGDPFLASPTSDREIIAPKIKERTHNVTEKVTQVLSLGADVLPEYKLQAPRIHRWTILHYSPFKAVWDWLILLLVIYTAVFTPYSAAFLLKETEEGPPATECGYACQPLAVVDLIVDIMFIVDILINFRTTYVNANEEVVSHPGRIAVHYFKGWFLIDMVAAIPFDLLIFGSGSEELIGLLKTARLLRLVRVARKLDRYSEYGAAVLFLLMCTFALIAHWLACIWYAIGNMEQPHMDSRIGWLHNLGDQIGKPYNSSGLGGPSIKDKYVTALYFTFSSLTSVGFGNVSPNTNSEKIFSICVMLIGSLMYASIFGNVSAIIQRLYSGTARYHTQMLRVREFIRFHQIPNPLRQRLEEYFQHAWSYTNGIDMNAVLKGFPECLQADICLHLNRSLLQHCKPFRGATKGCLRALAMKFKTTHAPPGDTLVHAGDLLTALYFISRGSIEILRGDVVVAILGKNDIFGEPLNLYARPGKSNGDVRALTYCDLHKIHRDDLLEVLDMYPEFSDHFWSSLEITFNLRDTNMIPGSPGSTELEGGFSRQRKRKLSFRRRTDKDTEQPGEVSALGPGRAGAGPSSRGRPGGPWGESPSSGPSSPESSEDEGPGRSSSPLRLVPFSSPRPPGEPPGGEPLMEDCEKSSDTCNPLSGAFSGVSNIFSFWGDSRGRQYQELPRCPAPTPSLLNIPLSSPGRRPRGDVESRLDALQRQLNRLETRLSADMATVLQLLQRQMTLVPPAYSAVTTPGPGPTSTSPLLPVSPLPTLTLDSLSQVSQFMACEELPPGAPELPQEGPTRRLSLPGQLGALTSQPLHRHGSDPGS

Structure (SMILES)	hERG current change (%, negative = inhibition) at 1uM [%]
Cn1ncc(Br)c1NC(=O)Nc1ccccc1	9.68
CN1CCN(NC(=S)Nc2ccc(OC(F)F)cc2)CC1	-9.34
CC1CCN(c2ccc(S(=O)(=O)Nc3cc(C(=O)O)cc(C(=O)O)c3)cc2[N+](=O)[O-])CC1	8.13
COc1ccc(N2CCN(C(=O)COC(=O)c3ccco3)CC2)cc1	10.7
CC1=C(C(=O)OC2CCCC2)C(c2coc3ccccc3c2=O)C2=C(CC(C)(C)CC2=O)N1 (centres unmarked)	5.99
COCCCNC(CC(=O)Nc1ccc(OC)cc1OC)C(=O)O (centres unmarked)	14.6
COc1ccc(-n2c(/C=C(\C)O)nc(=O)c3c(C)cc(C)nc32)cc1	1.91
Cc1ccc(NC(=O)c2c(C(F)(F)F)nn(C)c2SCc2cccc(C(F)(F)F)c2)cc1C	3.62
C=CCNC(=O)CC1C(=O)NCCN1Cc1c(F)cccc1Cl (centres unmarked)	5.87
O=C(Nc1ncn[nH]1)c1cc(S(=O)(=O)Nc2cccc(C(F)(F)F)c2)ccc1Cl	15.6
Br.COc1ccc(-c2csc(Nc3ccc(S(N)(=O)=O)cc3)n2)cc1OC	7.31
CCCNC(=O)COC(=O)c1ccc(-c2ccccc2)cc1	11.2
COc1cccc(NC(=O)CN(C)C(=O)c2cc(S(=O)(=O)N3CCCCC3)ccc2Cl)c1	-0.123
Cc1c2ccccc2nc2ccccc12	10.3
COc1cccc(C(=O)NCc2nnc(SCC(=O)Nc3nccs3)n2-c2ccccc2)c1	11.3
OC(COc1ccc2ccccc2c1)CN1CCCC1 (centres unmarked)	3.31
Nc1cccc(Nc2nc(OC(C(F)(F)F)C(F)(F)F)nc(OC(C(F)(F)F)C(F)(F)F)n2)c1	1.92
O=C(CSc1n[nH]c(=O)n1Cc1ccco1)c1ccc2c(c1)OCCO2	12.6
COc1ccc(C(=O)SC2=NCCS2)cc1OC	6.07
COc1ccc(CC(NC(C)=O)C(=O)NC2CCN(c3nc(C)cc(C)c3C#N)CC2)cc1OC (centres unmarked)	12.7
Cn1nnc2cc(C(=O)NCc3ccco3)ccc21	4.39
CC(=O)CSc1nc2ccccc2s1	10.5
CSc1nc2nc3c(cc2c(=O)n1-c1ccccc1C)CCCC3	-0.747

Structure (SMILES)	hERG current change (%, negative = inhibition) at 1uM [%]
CCCCS(=O)(=O)Nc1ccc(N2CCOCC2)c(S(=O)(=O)N2CCOCC2)c1	15.7
CCN(CC)S(=O)(=O)c1cccc(NC(=O)CCNC(=O)c2ccccc2Cl)c1	2.47
COc1ccc(/C=N/N2CCN(Cc3ccccc3)CC2)cc1	13.9
Cc1ccc(Nc2nc3ccccc3n3cnnc23)cc1Cl	8.12
CN(C)C=NC(=O)c1cn(-c2ccc(F)cc2)c(=O)c2ccccc12	11.8
COc1ccc(/C=C/CN2CCN(Cc3ccc(F)cc3)C(CCO)C2)cc1 (centres unmarked)	-3.48
CCOC(=O)N1CCN(C(=O)c2nc3ccccc3s2)CC1	9.38
Cc1ccc(C(c2nnnn2Cc2ccccc2)N2CC=C(c3ccc(F)cc3)CC2)cc1 (centres unmarked)	10.5
O=[N+]([O-])c1nn(-c2ccc3c(c2)OCCO3)n(O)c1=NC1CCN(Cc2ccccc2)CC1	-1.18
COc1ccc(CCNC(=O)C2CC3Cn4c(nc5cc(Cl)c(Cl)cc54)C3N2C)cc1 (centres unmarked)	-11.4
COc1ccc(C2=Nn3c(nnc3-c3ccco3)SC2)cc1OC	-39.1
Cc1ccc(-c2nc(NC(=O)c3nn(C)cc3[N+](=O)[O-])sc2C)cc1	5.71
COc1cccc(-n2c(SCC(=O)N3CCOCC3)nnc2-c2c[nH]c3ccccc23)c1	7.5
CCN1C(=O)N(C)C2(c3ccccc3)N(C)C(=O)N(C)C12c1ccccc1 (centres unmarked)	10.5
Cc1ccc(/C=N/NC(=O)CNC(=O)Cc2ccccc2)o1	-3.63
Cc1nn(C)cc1CNC(=O)Nc1ccc(Br)cc1Cl	12.5
CCCS(=O)(=O)N1CCCC(C(=O)Oc2ccc(Cl)cc2)C1 (centres unmarked)	17.4
CCN(CC)C(=O)CSc1nc2c(sc(=S)n2-c2ccc(C)cc2C)c(=O)[nH]1	16.1
Br.CCOC(=O)c1ccc(N=c2scc(C)n2CC)cc1	17.4
CCCn1c(SCC(=O)Nc2ccc(OC)cc2)nnc1-c1ccncc1	11.2
COc1cc(C2C(C(=O)OC(C)C)=C(C)Nc3[nH]c(=O)[nH]c(=O)c32)ccc1O (centres unmarked)	11.2
COc1ccc(OC)c(-c2c[n+](=O)c3c(n2[O-])CCCC3)c1	16.2
CNC(=O)c1cc(S(=O)(=O)Nc2ccc3c(c2)OCO3)ccc1C	7.73

Structure (SMILES)	hERG current change (%, negative = inhibition) at 1uM [%]
CC[n+]1c(C)sc2cc(OC)ccc21.[I-]	14.9
Cc1cccc(NC(=O)Nc2ccc(C)cc2Br)c1	15.3
CN(C[C@H](Cc1ccccc1)N(CCN(CCc1ccccc1)N=O)N=O)N=O.[Na+]	-0.0668
CN(C)S(=O)(=O)N1CCC(Oc2cccc(C(=O)N3CCCCCC3)c2)CC1	8.91
CC(=O)Nc1ccc(C)cc1NC(C)=O	16.8
Cc1ccc(N2C(=O)C3CC3C2=O)cc1 (centres unmarked)	-0.374
Cn1c(SCC(=O)c2cc3ccccc3o2)nnc1-c1ccccc1	5.39
CC1CCN(C(=O)CSc2nc(N)cc(N)n2)CC1	0.706
O=C(COC(=O)CCc1ccccc1)NCc1ccccc1	12.3
CC(=O)c1ccc(NC(=O)C(C)n2c3ccccc3c3nc(=O)cc(C)n32)cc1 (centres unmarked)	6.36
NC(=O)C1(N2CCCCC2)CCN(C(=O)c2cccs2)CC1	8.02
O=c1[nH]c(Cc2ccc(F)cc2)nc2scc(-c3ccc(F)cc3)c12	15.4
COCCn1c(SCC(=O)Nc2sc(C)c(C)c2C#N)nnc1C(C)C	5.85
Cc1cc(C)n2nc3nc(N4CCCC4)nc(-c4ccccc4)c3c2n1	9.42
Cc1cc(-c2ccc(C)c(S(=O)(=O)Nc3ccc(S(N)(=O)=O)cc3)c2)on1	4.46
CC1(C)C(C=C(Cl)Cl)C1C(=O)Nc1ccc([N+](=O)[O-])cc1 (centres unmarked)	17.1
C/C(=N\NC(=O)c1nn(C)c(C)c1Br)c1ccc(NC(=O)c2ccc(C)s2)cc1	-0.245
CSc1ccccc1NC(=O)CN1CCCCC1C (centres unmarked)	9.26
O=C(CSc1ncn[nH]1)NN(c1ccccc1)c1ccccc1	5.19
CC(=O)/C(=N/Nc1ccccc1C)N1CCOCC1.Cl	6.85
COc1ccc(C)cc1NC(=O)C(OC(=O)c1ccc(Cl)c(S(=O)(=O)N(C)c2ccccc2)c1)c1ccccc1 (centres unmarked)	0.968
FC(F)(F)c1ccc(-n2ccnc2)nc1	3.76
O=C(CCn1c2c(c3ccccc31)CCCC2)NNC(=O)c1ccccc1Cl	11.1

Structure (SMILES)	hERG current change (%, negative = inhibition) at 1uM [%]
CCOC(=O)C1=C(CN2CCSCC2)NC(=O)NC1c1cc(C)ccc1C (centres unmarked)	7.06
CCN(CC(=O)Nc1ccccc1C(F)(F)F)C(=O)CCS(=O)(=O)c1ccc(C)cc1	10.3
Cc1cccc(-c2nc3ccccc3c(=O)n2-n2cccc2)c1	1.91
C/C(=N/NC(=O)CNC(=O)c1cccnc1)c1ccc(Cl)c(Cl)c1	7.14
O=C(O)C1=C[C@@H](C2CCCCC2)C[C@@H](OCc2ccc(CO)cc2)O1	11.1
CC(=O)Nc1nc(C)c(C(C)C)s1	2.06
CS(=O)(=O)N(CC(=O)N1CCC(C(N)=O)CC1)C1CCCCC1	7.65
CC(NC(=O)CCc1ccc(S(=O)(=O)NC2CCCCC2)cc1)c1ccccc1 (centres unmarked)	10.5
Cc1ccc(CS(=O)Cc2ccc(C(=O)NCC(C)c3ccccc3)o2)cc1 (centres unmarked)	8.71
O=Cc1ccc2noc(-c3ccc(F)cc3)c2c1	-14.2
Cc1ncccc1C(=O)N1CCCC(C(=O)c2ccc3c4c(cccc24)CC3)C1 (centres unmarked)	10.2
O=C(COc1ccc2c(-c3ccccc3)cc(=O)oc2c1)NCc1ccccn1	0.948
O=C(NC1CCS(=O)(=O)C1)/C(=C/c1ccc(Cl)cc1)NC(=O)c1ccccc1 (centres unmarked)	-22.1
O=C(CNC(=O)c1ccc(-c2ccccc2)cc1)OCc1ccc(Cl)cc1	9.75
CC1CCCCN1C(=S)NC(=O)c1ccccc1 (centres unmarked)	6.73
CCOC(=O)Cc1csc(NC(=O)CN2CCOCC2)n1	8.37
O=C(NCC(c1ccco1)N1CCN(c2ccc(F)cc2)CC1)C(=O)NC1CCCC1 (centres unmarked)	17.4
Cc1ccc(-c2nnc3n2CCCCC3)cc1	0.609
CN(Cc1ccccc1)C(=O)CCSc1nc(-c2ccc3c(c2)OCO3)cc(C(F)(F)F)n1	11.4
COc1cccc2c1OCC(CN1CCN(C3CCCCC3)C(CCO)C1)=C2 (centres unmarked)	-9.09
